# In patent US11484593B2, “Atropisomers of halogenated tetraphenylbacteriochlorins and chlorins and their use in photodynamic therapy” (LUZITIN, S.A., priority 2015, dated 2022):
# Description: Absorption spectra were recorded on a Shimadzu UV-2100 spectrophotometer. Fluorescence spectra were measured with a Spex Fluorolog 3 spectrophotometer, with correction for the wavelength dependence system (RCA C31034 photomultiplier). Transient absorption spectra were measured with an Applied Photophysics LKS 60 nanosecond laser flash photolysis kinetic spectrometer, using the third harmonic of a Spectra-Physics Quanta Ray GCR 130-01 Nd/YAG laser for excitation, a Hamamatsu 1P28 photomultiplier and a Hewlett-Packard Infinium oscilloscope (1 GS/s). Flash photolysis measurements were made in the presence of air and in argon saturated solutions. Room-temperature singlet-oxygen phosphorescence was measured at 1270 nm with a Hamamatsu R5509-42 photomultiplier, cooled to 193 K in a liquid nitrogen chamber (Products for Research model PC176TSCE005), following laser excitation of aerated solutions at 355 nm, using an adapted Applied Photophysics spectrometer. […]
# Photobleaching experiments were conducted in methanol:PBS (3:2) solutions, where PBS refers to phosphate-buffered saline solutions. […] For each compound, the absorbance was collected in time intervals from few minutes up to hours of irradiation. The initial absorbances of the compounds were ca. 1.0.
# The transient lifetimes were measured at 400, 610 and 790 nm. […]
smiles,measurement,value
"CNS(=O)(=O)c1ccc(F)c(-c2c3nc(c(-c4c(F)ccc(S(=O)(=O)NC)c4F)c4ccc([nH]4)c(-c4c(F)ccc(S(=O)(=O)NC)c4F)c4nc(c(-c5c(F)ccc(S(=O)(=O)NC)c5F)c5ccc2[nH]5)CC4)CC3)c1F (single isomer, unassigned) [LUZ11-A]",half-lives (photobleaching),4.6 min
"CNS(=O)(=O)c1ccc(F)c(-c2c3nc(c(-c4c(F)ccc(S(=O)(=O)NC)c4F)c4ccc([nH]4)c(-c4c(F)ccc(S(=O)(=O)NC)c4F)c4nc(c(-c5c(F)ccc(S(=O)(=O)NC)c5F)c5ccc2[nH]5)CC4)CC3)c1F (single isomer, unassigned) [LUZ11-B]",half-lives (photobleaching),4.8 min
